Laboratory results: the supplement of paper PMC11417369
± gives the standard deviation of the averaged measurements. This is one part of the list.

Each sequence was assayed on PfAP2-EXP AP2 domain (GST-tagged) (assay: gcPBM binding intensity (ln(normalized median fluorescence intensity)); higher = stronger DNA binding).
Outline: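 Binding intensity is the highest Masliner-normalised natural-log median intensity over replicate spots in either probe orientation. To obtain it, GST-tagged P. falciparum DNA-binding domains made in E. coli were incubated for 1 h on an Agilent 4 × 180k array of primer-extended double-stranded 36-bp intergenic genomic probes plus negative controls. Detection used Alexa488 anti-GST antibody with scanning at 488 nm.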

Row | Sequence | gcPBM binding intensity (ln)
1 | AGGTGTCATAGATGCACACAAAAGTAACACGCACCT [CACACA_site4418] | 8.54 ± 0.3
2 | ATAACCTAATAATACACACACATGAATATAAATAAC [CACACA_site6584] | 8.79 ± 0.39
3 | ATATATATTTTATACGCATGTAATTATTATGTGGTC [TGCATGCA_site45] | 8.68 ± 0.3
4 | AAACAATTTGGGTGTACACATGATACGTTCGATGAG [CACACA_site5160] | 9.03 ± 0.35
5 | ATATTATACATTTATACACACATAAAAAGACAAAAA [CACACA_site3565] | 8.77 ± 0.45
6 | TGTAATATTTTTCATGCATGCTCTTCTTTTACATAA [TGCATGCA_site144] | 9.35 ± 0.35
7 | ATAATTTATATTACTTGTACATATTTATATGAACGA [XGTACX_site3610] | 8.18 ± 0.23
8 | TATATTAAACAATATACACACATTAATGTATCCATA [CACACA_site5523] | 8.4 ± 0.38
9 | TTATATATATATATATGTACACATATATAACATGAT [XGTACX_site6643] | 8.67 ± 0.18
10 | ACATGTAAATTTACATGTACATGTAACACTTAATAT [XGTACX_site4575] | 8.96 ± 0.32
11 | AAAACAAACGGACACACACACATATATATATATATA [CACACA_site5924] | 10.1 ± 0.32
12 | TACATATTTACTATCACACACACGATATATATAAAT [CACACA_site1242] | 8.74 ± 0.36
13 | TACTTAAAAAAAAAAAAAATAAATATTATGTATTAT [CACACA_negctrl_site138] | 8 ± 0.43
14 | ATACGAAAAAATAGACGTACTATGAAATAATAATTT [XGTACX_site8387] | 8.78 ± 0.44
15 | TTTAGTGAGTTTGTTGTGCACTGAAAAAATTACAAT | 9.07 ± 0.11
16 | TAATATTTTAATTGTGTGCACATTAATATTATAAAA | 8.575 ± 0.035
17 | TATATTATTTTTTGTGGTACATGTATTTTTACCTAA [XGTACX_site4348] | 8.94 ± 0.37
18 | GTACATTATATATATACACACATACATAATAAAGAA [CACACA_site5528] | 8.6 ± 0.47
19 | ATATGCTATTAATTATGTACATATATATATATATAT [XGTACX_site4901] | 10.1 ± 0.25

Row | Sequence | gcPBM binding intensity (ln)
20 | ACTACGTGTCAAAAATATTAATTACAAATGAATAAA [GTGCAC_negctrl_site248] | 8.04 ± 0.29
21 | GGACTATACAGTTATACACACACATATATATATAAT [CACACA_site7991] | 8.74 ± 0.51
22 | CGAAAGGAAATATAACGTACATAAGATTATATTCAC [XGTACX_site3868] | 8.64 ± 0.45
23 | AATAAATAAATATATTGTACATATATATATATATAT [XGTACX_site8627] | 10.2 ± 0.4
24 | ATGCATACACTTATATGTACACATTTACATATTATT [XGTACX_site2841] | 8.82 ± 0.34
25 | TATTAAAAGAAAAAAAAAAAAAAATTAATACATATA [XGTACX_negctrl_site582] | 8.18 ± 0.54
26 | ATGAACAAGGGGCACACACACATTATGACTAATTTA [CACACA_site3204] | 8.72 ± 0.5
27 | TATTAATATATAGTAGTGCAATAAAGATATACTGAA | 8.85 ± 0.14
28 | AACATACTCACGAACATACACACGGACATACATACG [CACACA_site603] | 8.99 ± 0.57
29 | ATCATTTTTATAAATTGTACAAATATTTTTTATACA [XGTACX_site7551] | 8.6 ± 0.33
30 | ATTTCGTAATTTATATCACACACATATATATATAAT [CACACA_site9021] | 8.89 ± 0.52
31 | CATATTATTTATATTTGTACACAGCGATATGAAATA [XGTACX_site7717] | 8.73 ± 0.39
32 | TATATATATATATATGTGCACATATATATGATATTA | 10.1 ± 0.34
33 | CTTACATAAAATATCACACACATAAAAAAACAATAT [CACACA_site1901] | 8.87 ± 0.39
34 | CACCAATTCATATGCACACACATCTGCATATTATAG [CACACA_site6925] | 8.8 ± 0.15
35 | ATATCGCACGTTTGAAGTACATAAAAACGATTAATA [XGTACX_site7684] | 8.66 ± 0.34
36 | TTATATAAATATAAGGTGCTGGGGTTTATTACATAT [GTGCAC_site9909] | 9.03 ± 0.54
37 | TTTTTTAAAATATAAAATATGTACAAATATGTTGAA [GTGCAC_negctrl_site379] | 8.56 ± 0.33
38 | TATAAAATATAAATTTGTACATATAAAATATTTTAT [XGTACX_site7462] | 8.45 ± 0.33

Row | Sequence | gcPBM binding intensity (ln)
39 | TAATAGTTATAAAATACACACCAGGCATGATAAATG [CACACA_site4335] | 8.5 ± 0.41
40 | AATATTTTAAAAAAATGTACTTTTAACCCTTATTGG [XGTACX_site3490] | 8.12 ± 0.33
41 | ATATATGGGTAGTATACACACTGTATATTTAGGAAT [CACACA_site7357] | 8.83 ± 0.35
42 | GTATGAAAAAAATATGCATGCTAAATAATAAATGTT [TGCATGCA_site352] | 9.35 ± 0.4
43 | TATATATATATACATACATATAAAGTTACATAAACA [CACACA_negctrl_site432] | 10 ± 0.18
44 | TAGATTTTTTTACATTGTACATATTTTTTCTTATAG [XGTACX_site293] | 8.7 ± 0.46
45 | GAACAAACAAAGAAAGAACACACATACACAATATAC [CACACA_site8918] | 9.06 ± 0.36
46 | AATACATACATATATACATGCATACATATAAATATA [TGCATGCA_site674] | 8.64 ± 0.35
47 | ATGATTTATTATTATACACACAAAAAAAAAAAAGGA [CACACA_site264] | 8.49 ± 0.47
48 | GAACAAAAAAAAAATTGTACACAATTTTTTAAAATT [XGTACX_site4455] | 8.3 ± 0.39
49 | AAACAAAAAAAATAAGCACACATATATATATATATA [CACACA_site8173] | 10.1 ± 0.26
50 | GCTTATAAGATATGCACACACAACACTTACAAAAAA [CACACA_site817] | 8.53 ± 0.37
51 | AAAATTATATGTAATTGTACGGAATTATATACGCAA [XGTACX_site2048] | 8.86 ± 0.3
52 | TTTTTTAAAAATATTATCATCGTAACAAGAAATCGA [CACACA_negctrl_site1111] | 8.45 ± 0.4
53 | TCCTGTGGTTATATAACACACATTATTGCTTATAAG [CACACA_site6823] | 8.66 ± 0.43
54 | ATATTGCTTATTTGATGTACGAATACACTAGTATTA [XGTACX_site4536] | 8.59 ± 0.26
55 | ATACTAAATGAACACACACACATATAGATTTATAAC [CACACA_site6200] | 8.71 ± 0.59
56 | TATCTGTATATGTGTACACATATTCTTAACTCACGC [CACACA_site4255] | 8.87 ± 0.37
57 | GAACAACAACAAAAAAAAAAAAAAAAAAAAAAAAAA [CACACA_negctrl_site199] | 7.87 ± 0.49
